Source: the supplement of paper PMC3334620
Over roughly 33,000 sequences, “E-score (-0.5 to 0.5)” has its median near -0.017; the highest 2% begin near 0.3. This is one part of the list.

These sequences were tested against T1, Sut1 (UniProt P53032) (assay: PBM E-score (8-mer binding enrichment) (E-score (-0.5 to 0.5)); higher = stronger / more preferred TF binding; most listed sequences are background and not binding sites). Settings: protein concentration: 200 nM; construct: GST-full length.
T1 sequence: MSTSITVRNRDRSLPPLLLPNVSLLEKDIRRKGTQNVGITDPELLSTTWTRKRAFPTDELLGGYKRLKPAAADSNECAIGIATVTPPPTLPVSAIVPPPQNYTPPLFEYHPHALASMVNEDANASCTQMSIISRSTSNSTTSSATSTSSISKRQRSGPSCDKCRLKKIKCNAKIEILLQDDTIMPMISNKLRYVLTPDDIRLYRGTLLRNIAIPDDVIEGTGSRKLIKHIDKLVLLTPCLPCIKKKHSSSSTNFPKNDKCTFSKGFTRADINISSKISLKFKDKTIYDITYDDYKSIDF
How it was run: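 Using PURExpress in vitro transcription/translation, GST-tagged yeast transcription factors were made in full-length or DNA-binding-domain form. These were applied at about 100-200 nM to double-stranded universal all-10-mer Agilent arrays, and bound protein was detected with fluorescent anti-GST. Scans were normalised with masliner before the Universal PBM Analysis Suite assigned E-scores to ungapped eight-base words pooled with their reverse complements.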

First: GAAGTGGC
Second: CGTTTGTA
The “PBM E-score” value of the first is lower: -0.21 for the first, 0.163 for the second.

Going from CCTACGGA to GCCGTTTA, the “PBM E-score” value rises from 0.0511 to 0.129.

Going from CCGACATC to ATGTTCAC, the “PBM E-score” value falls from -0.0523 to -0.122.

Going from AGGCGCTG to CTCTTCAG, the “PBM E-score” value falls from 0.0651 to -0.134.

Compared with CGTTATTA, ACAAGGAC is lower in “PBM E-score” value: 0.143 for the first, -0.0266 for the second.

Going from CTCGTCTC to AGACCTCC, the “PBM E-score” value falls from -0.114 to -0.207.

Compared with CAAGCATC, ATCTGGTA is lower in “PBM E-score” value: -0.0747 for the first, -0.127 for the second.

First: GTAAGTTA
Second: ACGTACGC
The “PBM E-score” value of the first is higher: 0.123 for the first, -0.148 for the second.

Compared with ATGCATGG, TATATATA is higher in “PBM E-score” value: -0.0121 for the first, 0.381 for the second.

First: AGGGAATA
Second: CAGGTGCA
The “PBM E-score” value of the first is higher: 0.0626 for the first, -0.128 for the second.

Going from GTGAGCAC to CAAATCGG, the “PBM E-score” value rises from -0.201 to 0.0756.

Compared with CAACATAA, CACGATCG is lower in “PBM E-score” value: 0.19 for the first, -0.0348 for the second.

Compared with AATGGGAC, CGGGACCC is lower in “PBM E-score” value: -0.19 for the first, -0.191 for the second.

Going from ATTATGAC to CTTGAGGA, the “PBM E-score” value falls from 0.2 to 0.0322.

First: AGCGCCCC
Second: CTTTGTTA
The “PBM E-score” value of the first is lower: -0.311 for the first, 0.216 for the second.

First: CACGCTCG
Second: AGTGCAAA
The “PBM E-score” value of the first is lower: -0.147 for the first, 0.174 for the second.

First: ACCCGTCA
Second: AAATACAC
The “PBM E-score” value of the first is lower: -0.145 for the first, 0.0774 for the second.

Going from CAACTGCA to CGGTGAAC, the “PBM E-score” value falls from -0.00961 to -0.0444.

First: CGATATAG
Second: ACGTCACA
The “PBM E-score” value of the first is lower: -0.0446 for the first, 0.00675 for the second.

Going from CACGTCTG to CAGCTAGG, the “PBM E-score” value falls from -0.127 to -0.236.

First: GCGGAACA
Second: GGGCGACC
The “PBM E-score” value of the first is higher: -0.11 for the first, -0.18 for the second.

Compared with AGGGTTAG, CGGACTCC is higher in “PBM E-score” value: -0.209 for the first, 0.475 for the second.

First: ACATATGA
Second: GTCGTCCA
The “PBM E-score” value of the first is higher: 0.0703 for the first, -0.127 for the second.

First: AAGACCGG
Second: CGATAAAA
The “PBM E-score” value of the first is lower: 0.13 for the first, 0.303 for the second.

Compared with ACCCTTAC, CCTCAGGC is lower in “PBM E-score” value: -0.129 for the first, -0.223 for the second.

Compared with AACCTTGC, CTTTCAAC is lower in “PBM E-score” value: -0.0267 for the first, -0.0409 for the second.

Going from GATGAATA to AAACAGCT, the “PBM E-score” value falls from 0.208 to -0.0346.

Compared with GAAGCAGA, GAAGCCAC is lower in “PBM E-score” value: 0.0478 for the first, -0.0595 for the second.

Compared with AGGTACGA, CACACTTC is higher in “PBM E-score” value: -0.171 for the first, -0.167 for the second.

First: CCCGTCAA
Second: AGTAGACA
The “PBM E-score” value of the first is lower: -0.077 for the first, 0.16 for the second.

Going from CATTGCCG to AACCTAAA, the “PBM E-score” value rises from 0.0441 to 0.168.

Compared with AGATGATA, AGCAGGAG is lower in “PBM E-score” value: 0.175 for the first, -0.0481 for the second.

Going from ATTGTGTA to AGAGTCAG, the “PBM E-score” value falls from 0.105 to -0.274.

Going from GTGTCGAA to CCACCACA, the “PBM E-score” value rises from -0.283 to -0.00498.

Compared with CCGACTTA, AACAAAGG is higher in “PBM E-score” value: 0.0927 for the first, 0.133 for the second.

Going from CTTTTTGA to CCTTGACA, the “PBM E-score” value falls from 0.133 to -0.179.

Compared with CGCTGTTA, AATGTGTG is higher in “PBM E-score” value: -0.199 for the first, 0.0166 for the second.

First: ACTTAGCC
Second: ACATATCT
The “PBM E-score” value of the first is lower: -0.129 for the first, 0.181 for the second.

Compared with AACCCTGG, AGTGGGTG is higher in “PBM E-score” value: -0.228 for the first, -0.0438 for the second.

First: GTTCTTGA
Second: GCGTCGAC
The “PBM E-score” value of the first is higher: 0.0691 for the first, -0.061 for the second.

Compared with CATCCATC, CATGTTCA is lower in “PBM E-score” value: 0.0878 for the first, -0.101 for the second.

Compared with AATCCTGA, CCGAGTGC is lower in “PBM E-score” value: -0.0303 for the first, -0.108 for the second.

First: CCCTTACA
Second: CGTATACA
The “PBM E-score” value of the first is lower: -0.0257 for the first, 0.0538 for the second.

Compared with CACGAATC, ATCGTTCG is higher in “PBM E-score” value: -0.0216 for the first, 0.0986 for the second.

Going from GAGCCCTA to ATTAGTAA, the “PBM E-score” value rises from -0.0005 to 0.23.

Going from CTATTCCC to ATTGGGAA, the “PBM E-score” value rises from -0.00426 to 0.061.

Going from GCGGCCCA to GACGTTCA, the “PBM E-score” value falls from 0.00935 to -0.106.

Going from TGCTTTAA to CTACATTC, the “PBM E-score” value rises from 0.0926 to 0.146.

Compared with GCCCGTCA, GGAAAACC is higher in “PBM E-score” value: -0.378 for the first, -0.155 for the second.

Compared with CTGGAAAC, GCTACACA is lower in “PBM E-score” value: -0.0136 for the first, -0.143 for the second.

First: CAGCGCGC
Second: AACGACTC
The “PBM E-score” value of the first is higher: -0.173 for the first, -0.178 for the second.

Going from ACCGGCAG to CACTTCTG, the “PBM E-score” value rises from -0.318 to -0.216.

First: GCTACGAC
Second: AGCTGCTA
The “PBM E-score” value of the first is higher: -0.123 for the first, -0.129 for the second.

First: CACTAATC
Second: CATTTTTA
The “PBM E-score” value of the first is higher: 0.215 for the first, 0.0566 for the second.

First: AATGAATC
Second: CATGAGTC
The “PBM E-score” value of the first is higher: 0.00339 for the first, -0.0171 for the second.

Going from TAGAGCCA to TACATGCA, the “PBM E-score” value rises from -0.239 to -0.0893.

Compared with AACGAATC, CCAGCCTA is lower in “PBM E-score” value: 0.142 for the first, -0.336 for the second.

Going from CCGTGTTC to TACTCAAA, the “PBM E-score” value rises from 0.11 to 0.131.

Compared with ACTTTGCA, ACCGATCA is lower in “PBM E-score” value: 0.133 for the first, 0.12 for the second.

Going from ATTGGTAC to ACCCAACT, the “PBM E-score” value falls from 0.111 to -0.145.

First: CAATAAAC
Second: AATTGTTA
The “PBM E-score” value of the first is lower: 0.169 for the first, 0.272 for the second.

Going from CAAAAACA to AATGCTCG, the “PBM E-score” value rises from 0.0332 to 0.0401.

Compared with AACCCCGC, CCCTTCCA is lower in “PBM E-score” value: 0.187 for the first, -0.145 for the second.

Going from ACGATATC to GATTGAAC, the “PBM E-score” value falls from 0.082 to 0.00278.

Compared with ACATATCC, ACTGTTCC is lower in “PBM E-score” value: 0.107 for the first, 0.0578 for the second.

First: TAGATGCA
Second: GAGCCTCC
The “PBM E-score” value of the first is higher: -0.00816 for the first, -0.0929 for the second.

First: AGCTTTGC
Second: ACGAGAAA
The “PBM E-score” value of the first is lower: 0.00053 for the first, 0.158 for the second.

Going from AAGTCCCG to AAATTGTC, the “PBM E-score” value rises from 0.0188 to 0.0917.

Going from AAGTTAAT to ACGTTACA, the “PBM E-score” value falls from 0.272 to 0.0879.

Compared with CGGGCTAG, GGTGGAAC is higher in “PBM E-score” value: -0.0775 for the first, 0.0659 for the second.

First: TCTCGAAA
Second: AACAGCGG
The “PBM E-score” value of the first is higher: 0.0302 for the first, -0.0307 for the second.

Going from AGTCGCGG to CACTAGAG, the “PBM E-score” value falls from 0.0263 to -0.0355.

Compared with TGCGGAAA, GATGAGCA is lower in “PBM E-score” value: 0.149 for the first, 0.0423 for the second.

Compared with CAATTGCA, ACGGACGT is higher in “PBM E-score” value: -0.0697 for the first, 0.00936 for the second.

Going from CACAAAGC to AATAGAAA, the “PBM E-score” value rises from -0.122 to 0.167.

Compared with GTCCGCAC, ATGTGCGC is lower in “PBM E-score” value: 0.247 for the first, -0.0669 for the second.

Going from CCCGACCA to CGCTCGGC, the “PBM E-score” value rises from -0.0857 to -0.00952.

Going from AGGCGTAG to CGGCTTCA, the “PBM E-score” value rises from -0.152 to 0.0568.

Compared with CAGTGGAG, ACAAGCAG is higher in “PBM E-score” value: 0.0447 for the first, 0.0716 for the second.

First: CACTTGCG
Second: CCTCTCAA
The “PBM E-score” value of the first is lower: -0.0968 for the first, -0.0081 for the second.

First: GGTTCGAA
Second: CAGTGAGG
The “PBM E-score” value of the first is higher: 0.14 for the first, -0.304 for the second.

First: CCACCTTC
Second: CCCCGCAA
The “PBM E-score” value of the first is lower: -0.24 for the first, 0.034 for the second.

Compared with CGGATTTC, GAACCCTA is lower in “PBM E-score” value: 0.211 for the first, -0.0467 for the second.

Going from AGAGTTTC to CAGGAGTA, the “PBM E-score” value falls from -0.0457 to -0.157.

Compared with AAATCTCG, TCAGGGGA is lower in “PBM E-score” value: 0.179 for the first, -0.213 for the second.

First: AGTCCCAT
Second: TCTGTCCA
The “PBM E-score” value of the first is lower: -0.214 for the first, 0.0543 for the second.
